# Laboratory results from PubChem BioAssay AID1508624 (National Center for Advancing Translational Sciences (NCATS), 2021).
# Screen size: about 48,000 compounds; about 120 (0.25%) were called active. Another 4% or so got no clear call; they are omitted. The call rests on the fitted dose curve; in most records, active means well fitted activation curve with a large enough effect; inconclusive means small, poorly fitted or top-dose-only effect, or another doubt; inactive means no such curve, though single readings can be large or run the other way. Some of the results follow.
# Assay: Primary qHTS for Identification of Small Molecule Activators of Huntingtin-Antisense Promoter Activity; further: nearly all actives have a fitted effect of over 55% in size
# Conditions: HEK293 HTT-AS promoter firefly luciferase reporter (activity 0% = vehicle and -100% = no light), 24 h; series mostly up to 57.5 µM; activity change, positive = activation: at the top concentration
# Method in brief: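 HEK293 luciferase promoter-reporter cells (2,500/well) plated 24 h, then compounds added at up to 57.5 uM final for 24 h at 37 °C. Firefly luminescence by Dual-Glo, normalized to vehicle (0%) and zero RLU (-100%).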
row,SMILES,"activity change, positive = activation"
1,Cc1ccc(Nc2c(-c3ccsc3)nc3c(C)cccn23)cc1,inactive: 22.5%
2,COc1ccccc1CNC(=O)Cn1ncn2c(cc3sccc32)c1=O,inactive: -7.5%
3,COc1ccc(S(=O)(=O)NCc2cccn2Cc2cccc(C)c2)cc1,inactive: -10%
4,COc1ccccc1NC(=O)CC(c1cc(OC)c(OC)c(OC)c1)N1Cc2ccccc2C1=O (configuration not stated),inactive: -14.2%
5,CCCCCSc1nc2sc3c(c2c(=O)n1-c1ccc(OC)cc1)CCN(C(C)=O)C3,inactive: -47.8%
6,Cc1c(C)n(C)c2ccc(C(=O)NCc3cccc(F)c3)cc12,inactive: -3.6%
7,CCOC(=O)CSc1nnc2n(-c3ccccc3)c(=O)c3c4c(sc3n12)CC(C(C)(C)C)CC4 (configuration not stated),inactive: -4.64%
8,COc1cc2c(cc1NC(=O)COc1ccc(Cl)cc1Br)oc1ccccc12,inactive: 16.1%
9,O=S(=O)(Nc1cccc(C(F)(F)F)c1)c1ccc(-c2cnc(C3CC3)o2)cc1,inactive: -49.8%
10,COc1ccc(S(=O)(=O)c2c(C(=O)c3ccc(C)c(C)c3)cnc3ccc(F)cc23)cc1,inactive: -63.8%
11,CC(C)c1ccc(OCC(=O)Nc2c(C(=O)c3ccc(F)cc3)oc3ccccc23)cc1,inactive: -12%
12,O=C(CN1CCSc2ccccc21)N1CCN(c2ccc(F)cc2)CC1,inactive: -23.5%
13,CCCN(Cc1cccs1)C(=O)Nc1cc(OC)ccc1OC,inactive: -10.7%
14,Cc1ccc(N(C)C(=O)c2cc(S(=O)(=O)N3CCOCC3)cn2C)cc1,inactive: -14.6%
15,COc1ccc(CCNC(=O)CCCCn2c(=O)c3ccccc3n(Cc3ccccc3Cl)c2=O)cc1OC,inactive: -20.3%
16,COc1ccccc1-c1noc(CCCC(=O)Nc2cc(C)ccc2C)n1,inactive: -14.1%
17,COc1ccc(C(=O)Nc2ccc(C(=O)OCc3cc(=O)n4nc(C5CC5)sc4n3)cc2)cc1,inactive: 0%
18,Cc1ccc(-n2nc3c(N4CCC(C(=O)NCc5ccccc5Cl)CC4)nnc(C)c3c2C)cc1,inactive: -13.8%
19,CCOC(=O)c1c(C)[nH]c(C)c1S(=O)(=O)NCC(=O)N1CCN(c2ccccc2OC)CC1,inactive: 10.6%
20,COc1ccc(OC)c(S(=O)(=O)NCCc2csc(-c3cccc(F)c3)n2)c1,inactive: 3.21%
21,CCN(CC)C(=O)Nc1ccc2c(c1)N(Cc1ccccc1)C(=O)c1ccccc1S2,inactive: -12.9%
22,Cc1cc(=O)c2cc(C(=O)Nc3ccccc3C)ccc2[nH]1,inactive: -8.63%
23,CCOc1ccc(CNC(=O)CCCc2cn(C)c3ccccc23)cc1OC,inactive: -27.7%
24,COC(=O)c1cc2sc(Cl)cc2n1Cc1cc(C)ccc1C,inactive: 15.5%
25,Cc1ccc(-n2nc3c(=O)n(CC(=O)NCC(C)c4ccccc4)nc(C)c3c2C)cc1 (configuration not stated),inactive: -43.7%
26,COc1ccc(Cn2ccc3nc(C)c(C(=O)NCc4cccc(OC)c4)cc3c2=O)cc1,inactive: -13.7%
27,CCc1ccccc1NC(=O)Cn1c2ncccc2c(=O)n1-c1ccccc1,inactive: -23.3%
